Assay results taken from the supplement of paper PMC8728848.
The list shows a part of the results.

Assays:
Assay in all cases: glycan array binding signal (z-score within array); higher = stronger binding
Settings in all cases: glycan notation: IUPAC condensed, linker removed
[1] = molecular target: Fuc(a1-2)Gal(b1-4)[Fuc(a1-3)]GlcNAc(b1-2)Man(a1-3)[Fuc(a1-2)Gal(b1-4)[Fuc(a1-3)]GlcNAc(b1-2)Man(a1-6)]Man(b1-4)GlcNAc(b1-4)[Fuc(a1-6)]GlcNAc
In short: (§1)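 The Consortium for Functional Glycomics database supplied 3228 glycan arrays, of which those lacking an available protein sequence were dropped. The binding signal, a within-array Z-score, was averaged across arrays of the same protein sequence and across linkers. Negative scores can be read as non-binding.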

[2] = molecular target: Fuc(a1-2)Gal(b1-4)[Fuc(a1-3)]GlcNAc(b1-2)[Fuc(a1-2)Gal(b1-4)[Fuc(a1-3)]GlcNAc(b1-4)]Man(a1-3)[Fuc(a1-2)Gal(b1-4)[Fuc(a1-3)]GlcNAc(b1-2)Man(a1-6)]Man(b1-4)GlcNAc(b1-4)GlcNAc
In short: as §1

[3] = molecular target: Fuc(a1-2)Gal(b1-4)[Fuc(a1-3)]GlcNAc(b1-3)Gal(b1-4)[Fuc(a1-3)]GlcNAc
In short: as §1

[4] = molecular target: Fuc(a1-2)Gal(b1-4)[Fuc(a1-3)]GlcNAc(b1-3)Gal(b1-4)[Fuc(a1-3)]GlcNAc(b1-3)Gal(b1-4)[Fuc(a1-3)]GlcNAc
In short: as §1

[5] = molecular target: Fuc(a1-2)Gal(b1-4)[Fuc(a1-3)]GlcNAc(b1-3)GalNAc
In short: as §1

[6] = molecular target: Fuc(a1-2)Gal(b1-4)[Fuc(a1-3)]GlcNAc(b1-3)[Neu5Ac(a2-6)Gal(b1-4)GlcNAc(b1-6)]Gal(b1-4)Glc
In short: as §1

[7] = molecular target: Fuc(a1-2)Gal3S(b1-4)GlcNAc
In short: as §1

[8] = molecular target: Fuc(a1-2)Gal6S(b1-3)GlcNAc
In short: as §1

[9] = molecular target: Fuc(a1-2)Gal6S(b1-3)GlcNAc6S
In short: as §1

Fuc(a1-2)Gal6S(b1-4)Glc = molecular target: Fuc(a1-2)Gal6S(b1-4)Glc
In short: as §1

[10] = molecular target: Fuc(a1-2)Gal6S(b1-4)Glc6S
In short: as §1

Fuc(a1-2)[Gal(a1-3)]Gal = molecular target: Fuc(a1-2)[Gal(a1-3)]Gal
In short: as §1

[11] = molecular target: Fuc(a1-2)[Gal(a1-3)]Gal(b1-3)GalNAc
In short: as §1

[12] = molecular target: Fuc(a1-2)[Gal(a1-3)]Gal(b1-3)GalNAc(b1-3)Gal(a1-4)Gal(b1-4)Glc
In short: as §1

[13] = molecular target: Fuc(a1-2)[Gal(a1-3)]Gal(b1-3)GlcNAc
In short: as §1

[14] = molecular target: Fuc(a1-2)[Gal(a1-3)]Gal(b1-3)GlcNAc(b1-2)Man(a1-3)[Fuc(a1-2)[Gal(a1-3)]Gal(b1-3)GlcNAc(b1-2)Man(a1-6)]Man(b1-4)GlcNAc(b1-4)GlcNAc
In short: as §1

[15] = molecular target: Fuc(a1-2)[Gal(a1-3)]Gal(b1-3)GlcNAc(b1-2)Man(a1-3)[Fuc(a1-2)[Gal(a1-3)]Gal(b1-3)GlcNAc(b1-2)Man(a1-6)]Man(b1-4)GlcNAc(b1-4)[Fuc(a1-6)]GlcNAc
In short: as §1

[16] = molecular target: Fuc(a1-2)[Gal(a1-3)]Gal(b1-3)GlcNAc(b1-3)GalNAc
In short: as §1

[17] = molecular target: Fuc(a1-2)[Gal(a1-3)]Gal(b1-3)GlcNAc(b1-6)GalNAc
In short: as §1

[18] = molecular target: Fuc(a1-2)[Gal(a1-3)]Gal(b1-4)Glc
In short: as §1

[19] = molecular target: Fuc(a1-2)[Gal(a1-3)]Gal(b1-4)GlcNAc
In short: as §1

[20] = molecular target: Fuc(a1-2)[Gal(a1-3)]Gal(b1-4)GlcNAc(b1-2)Man
In short: as §1

[21] = molecular target: Fuc(a1-2)[Gal(a1-3)]Gal(b1-4)GlcNAc(b1-2)Man(a1-3)[Fuc(a1-2)[Gal(a1-3)]Gal(b1-4)GlcNAc(b1-2)Man(a1-6)]Man(b1-4)GlcNAc(b1-4)GlcNAc
In short: as §1

[22] = molecular target: Fuc(a1-2)[Gal(a1-3)]Gal(b1-4)GlcNAc(b1-2)Man(a1-3)[Fuc(a1-2)[Gal(a1-3)]Gal(b1-4)GlcNAc(b1-2)Man(a1-6)]Man(b1-4)GlcNAc(b1-4)[Fuc(a1-6)]GlcNAc
In short: as §1

[23] = molecular target: Fuc(a1-2)[Gal(a1-3)]Gal(b1-4)GlcNAc(b1-3)GalNAc
In short: as §1

[24] = molecular target: Fuc(a1-2)[Gal(a1-3)]Gal(b1-4)GlcNAc(b1-3)[Fuc(a1-2)[Gal(a1-3)]Gal(b1-4)GlcNAc(b1-6)]GalNAc
In short: as §1

[25] = molecular target: Fuc(a1-2)[Gal(a1-3)]Gal(b1-4)GlcNAc(b1-6)GalNAc
In short: as §1

[26] = molecular target: Fuc(a1-2)[Gal(a1-3)]Gal(b1-4)[Fuc(a1-3)]Glc
In short: as §1

[27] = molecular target: Fuc(a1-2)[Gal(a1-3)]Gal(b1-4)[Fuc(a1-3)]GlcNAc
In short: as §1

[28] = molecular target: Fuc(a1-2)[Gal(a1-3)]Gal(b1-4)[Fuc(a1-3)]GlcNAc(b1-3)GalNAc
In short: as §1

[29] = molecular target: Fuc(a1-2)[Gal(a1-4)]Gal(b1-4)GlcNAc
In short: as §1

[30] = molecular target: Fuc(a1-2)[GalNAc(a1-3)]Gal
In short: as §1

[31] = molecular target: Fuc(a1-2)[GalNAc(a1-3)]Gal(b1-3)GalNAc(a1-3)[Fuc(a1-2)]Gal(b1-4)GlcNAc
In short: as §1

[32] = molecular target: Fuc(a1-2)[GalNAc(a1-3)]Gal(b1-3)GalNAc(b1-3)Gal(a1-4)Gal(b1-4)Glc
In short: as §1

[33] = molecular target: Fuc(a1-2)[GalNAc(a1-3)]Gal(b1-3)GlcNAc
In short: as §1

[34] = molecular target: Fuc(a1-2)[GalNAc(a1-3)]Gal(b1-3)GlcNAc(b1-2)Man(a1-3)[Fuc(a1-2)[GalNAc(a1-3)]Gal(b1-3)GlcNAc(b1-2)Man(a1-6)]Man(b1-4)GlcNAc(b1-4)GlcNAc
In short: as §1

[35] = molecular target: Fuc(a1-2)[GalNAc(a1-3)]Gal(b1-3)GlcNAc(b1-2)Man(a1-3)[Fuc(a1-2)[GalNAc(a1-3)]Gal(b1-3)GlcNAc(b1-2)Man(a1-6)]Man(b1-4)GlcNAc(b1-4)[Fuc(a1-6)]GlcNAc
In short: as §1

[36] = molecular target: Fuc(a1-2)[GalNAc(a1-3)]Gal(b1-3)GlcNAc(b1-3)GalNAc
In short: as §1

B1: PLU (Photorhabdus luminiscence) (protein)
chain: HHHHHHENLYFQSSIVFASIDPRSNPLQTSSQNYVDIPGLKLDVSKYSNSPCLTALITLNIPTPYASGNNFPGGNFAIVTDQGEQLAYGGFTYSSKIPENSGRMPFTLVARYSLASNVSTIKAQWSNIRGSTVHIDSYASISAVIQCNQLV
- glycan array binding signal (z-score) [1]: 0.621
- glycan array binding signal (z-score) [2]: -0.224
- glycan array binding signal (z-score) [3]: 3.58
- glycan array binding signal (z-score) [4]: 5.21
- glycan array binding signal (z-score) [5]: -0.253
- glycan array binding signal (z-score) [6]: 0.118
- glycan array binding signal (z-score) [7]: 1.37
- glycan array binding signal (z-score) [8]: -0.284
- glycan array binding signal (z-score) [9]: -0.318
- glycan array binding signal (z-score) (Fuc(a1-2)Gal6S(b1-4)Glc): 2.23
- glycan array binding signal (z-score) [10]: -0.348
- glycan array binding signal (z-score) (Fuc(a1-2)[Gal(a1-3)]Gal): 3.17
- glycan array binding signal (z-score) [11]: 2.9
- glycan array binding signal (z-score) [12]: 0.036
- glycan array binding signal (z-score) [13]: 4.43
- glycan array binding signal (z-score) [14]: 2.12
- glycan array binding signal (z-score) [15]: 0.23
- glycan array binding signal (z-score) [16]: -0.324
- glycan array binding signal (z-score) [17]: -0.187
- glycan array binding signal (z-score) [18]: 3.43
- glycan array binding signal (z-score) [19]: 3.83
- glycan array binding signal (z-score) [20]: 2.31
- glycan array binding signal (z-score) [21]: 3.78
- glycan array binding signal (z-score) [22]: 1.48
- glycan array binding signal (z-score) [23]: 1.97
- glycan array binding signal (z-score) [24]: 2.24
- glycan array binding signal (z-score) [25]: -0.294
- glycan array binding signal (z-score) [26]: 1.64
- glycan array binding signal (z-score) [27]: 5.59
- glycan array binding signal (z-score) [28]: 2.44
- glycan array binding signal (z-score) [29]: 2.22
- glycan array binding signal (z-score) [30]: -0.022
- glycan array binding signal (z-score) [31]: 0.11
- glycan array binding signal (z-score) [32]: -0.33
- glycan array binding signal (z-score) [33]: -0.115
- glycan array binding signal (z-score) [34]: -0.157
- glycan array binding signal (z-score) [35]: -0.249
- glycan array binding signal (z-score) [36]: -0.232
